The values below come from PubChem BioAssay AID1645882 (National Center for Advancing Translational Sciences (NCATS), 2021).

Each structure is given as a SMILES string. “And” between values parts separate entries of the source, which are not always exact repeats. Equal values may be shown once. Hit rate of the full screen: of about 16,000 compounds, about 120 (0.75%) were called active. Inconclusive results (about 4%) are left out. The call rests on the fitted dose curve; in most records, active means well fitted inhibition curve with a large enough effect; inconclusive means small, poorly fitted or top-dose-only effect; inactive means no such curve, though single readings can be large or run the other way. Some of the results follow. More than one record can exist for a structure, and the calls need not agree. Where a SMILES comes first, the peptide text is derived from it.
Potency means the concentration at half of the fitted maximal effect.

UniProt O95398, sequence (O95398 whole entry, looked up): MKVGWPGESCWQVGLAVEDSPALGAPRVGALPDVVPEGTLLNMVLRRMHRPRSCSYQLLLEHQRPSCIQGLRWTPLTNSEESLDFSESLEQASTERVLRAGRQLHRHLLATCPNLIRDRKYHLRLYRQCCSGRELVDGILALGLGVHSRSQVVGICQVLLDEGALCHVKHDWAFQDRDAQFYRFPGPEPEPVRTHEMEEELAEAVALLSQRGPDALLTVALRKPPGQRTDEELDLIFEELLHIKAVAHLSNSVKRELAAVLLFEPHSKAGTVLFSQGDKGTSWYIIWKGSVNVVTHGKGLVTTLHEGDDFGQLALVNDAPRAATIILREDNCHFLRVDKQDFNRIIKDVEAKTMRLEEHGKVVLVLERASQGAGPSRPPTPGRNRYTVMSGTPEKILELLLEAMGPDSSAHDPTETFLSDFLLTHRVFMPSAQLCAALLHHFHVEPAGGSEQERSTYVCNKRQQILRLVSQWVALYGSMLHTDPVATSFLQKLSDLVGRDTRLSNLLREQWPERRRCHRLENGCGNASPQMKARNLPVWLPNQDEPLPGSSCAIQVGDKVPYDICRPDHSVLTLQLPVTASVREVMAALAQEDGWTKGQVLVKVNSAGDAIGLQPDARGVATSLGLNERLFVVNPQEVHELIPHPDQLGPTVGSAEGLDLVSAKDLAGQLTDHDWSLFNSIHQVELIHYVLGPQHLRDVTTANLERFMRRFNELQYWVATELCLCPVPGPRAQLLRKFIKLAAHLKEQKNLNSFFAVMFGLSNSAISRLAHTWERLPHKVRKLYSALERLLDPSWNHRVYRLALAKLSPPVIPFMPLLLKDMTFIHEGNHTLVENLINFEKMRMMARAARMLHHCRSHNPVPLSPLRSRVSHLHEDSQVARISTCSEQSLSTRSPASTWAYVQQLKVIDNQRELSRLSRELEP

The assay deals with Rap guanine nucleotide exchange factor 3 (Homo sapiens) (UniProt O95398). Nature of the assay: Validation qHTS for antagonist of cAMP-regulated guanine nucleotide exchange factor 3 (EPAC1). Further: nearly all actives have a fitted effect of over 75% in size. Particulars: EPAC1 Rap1B-BODIPY-GDP exchange, fluorescence; series mostly up to 150 µM; activity change, negative = inhibition: at the top concentration. Put shortly:
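EPAC1 (100 nM) mixed with 250 nM RAP1B-BODIPY-GDP and 50 uM GDP; compounds in concentration series, 5 min at room temperature. Fluorescence (ex 480/em 540 nm) read every 5 min for 30 min; normalized to ATA control and DMSO.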
A general note: In qHTS, concentration-response curves come from the screen itself.
`CC(C)(CO)[C@@H](O)C(=O)NCCC(=O)NCCSSCCNC(=O)CCNC(=O)[C@H](O)C(C)(C)CO`: the “activity change, negative = inhibition” value was inactive: 10.3%.

As for `O=C(Nc1cccc(F)c1)N1CC2(CCN(C(=O)c3cnccn3)CC2)C1`, the “activity change, negative = inhibition” value is inactive: 9.42%.

In the case of `O=C(NC[C@@H]1CCCN2CCCC[C@H]12)c1cnn(-c2nccc(-c3cc4ccccc4o3)n2)c1C1CC1`, the “activity change, negative = inhibition” value is inactive: 7.24%.

In the case of `COC1=C[C@@H](C)C2CC3OC(=O)C[C@H]4C(C)=C(OC)C(=O)C([C@@]2(C)C1=O)[C@@]34C` (stereo partly specified), the “activity change, negative = inhibition” value was inactive: 5.09%.

Consider `CO[C@H]1C=CO[C@@]2(C)Oc3c(C)c(O)c4c(O)c(c5c(c4c3C2=O)=NC2(CCN(CC(C)C)CC2)N=5)NC(=O)/C(C)=C\C=C/[C@H](C)[C@H](O)[C@@H](C)[C@@H](O)[C@@H](C)[C@H](OC(C)=O)[C@@H]1C`, for which the “activity change, negative = inhibition” value is inactive: -7.39%.

As for `O=C(c1cnccn1)N1CCC2(CC1)CN(c1ccccn1)C2`, the “activity change, negative = inhibition” value is inactive: 23%.

As to `COc1cccc(C(=O)O[C@H]2[C@H](C)NS(=O)(=O)[C@H]3C[C@@H]4C=C[C@]23O4)c1`, the “activity change, negative = inhibition” value is inactive: -4.22%.

For the molecule `NNCCc1ccccc1`, the activity change, negative = inhibition result is “inactive”.

As to `O=C(Oc1ccccc1)N1CCC[C@@]2(CCN(c3ncccn3)C2)C1`, the “activity change, negative = inhibition” value is inactive: 17.1%.

Regarding `CC(C)(C)c1ccc(S(=O)(=O)N[C@H]2CC[C@@H](n3cc(C(=O)N4CCCC4)nn3)CC2)cc1`, the “activity change, negative = inhibition” value was inactive: 7.47%.

In the case of `CCCCCCCCCCCCCCCC(=O)OC(C)C`, the “activity change, negative = inhibition” value was inactive: 18.4%.

In the case of `O=C1C[C@@H]2c3c(cccc3CN1Cc1ccc(F)cc1)C[C@@H](O)[C@H]2O`, the “activity change, negative = inhibition” value is inactive: 2.35%.

Turning to `CCNC(=O)NCCCOc1cccc(CN2CCCCC2)c1`, the “activity change, negative = inhibition” value is inactive: 5.35%.

For `COc1ccc(-c2ccc(N)[n+](CCCC(=O)O)n2)cc1`, the “activity change, negative = inhibition” value was inactive: -4.17% [at 75.8 µM].

In the case of `CN1CCN(c2ncc3nc(-c4cccc(C#N)c4)c(=O)n(CCC#N)c3n2)CC1`, the “activity change, negative = inhibition” value was inactive: 15.6%.

Regarding `NC1(C(=O)O)CCCCC1`, the “activity change, negative = inhibition” value was inactive: 16.8% [at 75.8 µM].

As to `COC(=O)C[C@H]1c2cc(C(F)(F)F)ccc2S(=O)(=O)N1c1ccc(N(C)C)cc1`, the “activity change, negative = inhibition” value was inactive: 6.39%.

Turning to `CC(=O)C1(C)CC2(CC(C)(C)OC2=O)C(=O)O1` (stereo unspecified), the “activity change, negative = inhibition” value is inactive: -4.18%.

In the case of `COc1ccccc1CNc1ncncc1-c1ccc(N(C)C)cc1`, the “activity change, negative = inhibition” value was inactive: 1.52%.

Consider `COc1ccccc1-c1ccc2ncnc(NCc3cccnc3)c2c1`, for which the “activity change, negative = inhibition” value is inactive: 27.6%.

As to `O=c1c(-c2cccs2)nc2cnc(N3CCNCC3)nc2n1-c1ccccc1`, the “activity change, negative = inhibition” value was inactive: 47.3%.

Turning to `CC(Cc1cccc(C(F)(F)F)c1)NCCOC(=O)c1ccccc1` (stereo unspecified), the “activity change, negative = inhibition” value was inactive: -15.6%.

For the molecule `Cc1cc(C(=O)O)ccc1[C@H](N)C(=O)O`, the “activity change, negative = inhibition” value was inactive: 3.69%.

`COc1cccc(Cn2c(=O)c(-c3ccccc3)nc3cnc(OC)nc32)c1`: the “activity change, negative = inhibition” value was inactive: 2.54%.

Take `O=C(/C=C/c1ccc(O)c(O)c1)OC(Cc1ccc(O)c(O)c1)C(=O)O` (stereo unspecified): the Potency entry was “inactive and active: 100 µM”.

For the molecule `CCCCC/C=C\C/C=C\C/C=C\C/C=C\CCCCCC(=O)O`, the activity change, negative = inhibition was inactive: -11% [at 15.3 µM].

As to `COCCn1c(=O)c(-c2ccc(OC)cc2)nc2cnc(Oc3ccc(OC)cc3)nc21`, the “activity change, negative = inhibition” value was inactive: 3.42%.

On to `Cc1ccc2c(c1)CN(CCNC(=O)c1n[nH]c3c1CCCC3)CC(C)O2` (stereo unspecified), for which the “activity change, negative = inhibition” value is inactive: -1.47%.

Take `CC(=O)S[C@@H]1CC2=CC(=O)CC[C@]2(C)[C@H]2CC[C@@]3(C)[C@@H](CC[C@@]34CCC(=O)O4)[C@H]12`: the “activity change, negative = inhibition” value is inactive: 38%.

For the molecule `CSc1nccc(-c2cc(Cl)c3c(c2)CC(CNC(=O)c2ccc(C)nc2)O3)n1` (stereo unspecified), the “activity change, negative = inhibition” value is inactive: 11.4%.

Consider `CN(C)c1ccc(-c2cncnc2NCCc2cnc[nH]2)cc1`, for which the “activity change, negative = inhibition” value is inactive: 10.4%.

Take `COc1ccc(Oc2ncc3nc(-c4ccccc4)c(=O)n(C4CC4)c3n2)cc1`: the “activity change, negative = inhibition” value was inactive: 4.43%.

`COc1cccc(OC)c1OCCNC[C@@H]1COc2ccccc2O1`: the “activity change, negative = inhibition” value was inactive: 8.55%.

In the case of `Cc1ccc(C)c(CN2CCc3nnc(CNC(=O)c4cc(C)oc4C)n3CC2)c1`, the “activity change, negative = inhibition” value is inactive: 6.74%.

Turning to `O=c1c(-c2ccc(Cl)cc2)nc2cncnc2n1Cc1ccccc1`, the “activity change, negative = inhibition” value was inactive: 2.5%.

In the case of `COc1cc(/C=C/C(=O)O[C@H]2CC[C@]34C[C@]35CC[C@]3(C)[C@@H]([C@H](C)CCC=C(C)C)CC[C@@]3(C)[C@@H]5CC[C@H]4C2(C)C)ccc1O`, the activity change, negative = inhibition result is “inactive”.

Consider `COc1cccc(C2(CC(=O)N3CCN(c4nonc4C)CC3)CC(=O)N(C3CCCC3)C2=O)c1` (stereo unspecified), for which the “activity change, negative = inhibition” value is inactive: 8.55%.

For `CC(=O)NCCNc1ncnc2ccc(-c3ccc(C(=O)N(C)C)cc3)cc12`, the “activity change, negative = inhibition” value is inactive: 26%.

Turning to `CC(NC(=O)c1cc(F)ccc1F)c1nnc2n1CCN(Cc1cccs1)CC2` (stereo unspecified), the “activity change, negative = inhibition” value was inactive: 15.3%.

With `CCCc1cc(C(N)=S)ccn1`, the “activity change, negative = inhibition” value was inactive: 20.5%.

In the case of `COc1ccccc1-c1oc2ccccc2c(=O)c1OC`, the “activity change, negative = inhibition” value is inactive: 4.17%.

On to `FC(F)(F)c1ccccc1-c1ccc2ncnc(NC3CC3)c2c1`, for which the “activity change, negative = inhibition” value is inactive: 2.34%.

On to `Cc1ncc(C[n+]2csc(CCO)c2C)c(N)n1`, for which the “activity change, negative = inhibition” value is inactive: 13.3% [at 75.8 µM].

On to `CC(C)c1c(C(=O)Nc2ccccc2)c(-c2ccccc2)c(-c2ccc(F)cc2)n1CC[C@@H](O)C[C@@H](O)CC(=O)O`, for which the “activity change, negative = inhibition” value was inactive: 19.1%.

Take `Cn1cccc1C(=O)N1CCC[C@@]2(CCN(c3ccncc3)C2)C1`: the “activity change, negative = inhibition” value is inactive: 12.6%.

With `O=C1c2ccccc2C(=O)C1c1ccc(F)cc1`, the “activity change, negative = inhibition” value is inactive: -3.07%.

Regarding `CC(=O)NC(CC(=O)O)C(=O)NC(CCC(=O)O)C(=O)O` (stereo not drawn) (Ac-Asp-Glu-OH; configuration not given here), the “activity change, negative = inhibition” value was inactive: 10.2%.

Turning to `O=C(c1ccncc1)N1CCC2(CCCN(C(c3ccccc3)c3ccccc3)C2)CC1`, the “activity change, negative = inhibition” value is inactive: -2.18%.

Consider `COc1ccccc1CNc1ccnc(-c2ccc3c(c2)OCO3)n1`, for which the “activity change, negative = inhibition” value was inactive: 1.29%.

`COc1ccc(Oc2ncc3ncc(=O)n(CCC#N)c3n2)cc1`: the “activity change, negative = inhibition” value is inactive: 14.6%.

For the molecule `Cc1ccc(C(=O)Nc2cccc(-c3nc(CNC(=O)c4ccc(F)cc4Cl)c(C)o3)c2)s1`, the “activity change, negative = inhibition” value is inactive: -17.1%.

As for `COc1cc(=O)n2c(c1C(=O)N(C)Cc1nonc1C)CCN(CC1CC=CCC1)CC2` (stereo unspecified), the “activity change, negative = inhibition” value was inactive: -9.33%.

For the molecule `Cc1cc(=O)c2c(O)c3c(O)cc(=O)c4c3c3c(cc(O)c1c23)C(C)(C)C=4O`, the activity change, negative = inhibition entry is “inactive”.

With `COCCn1c(=O)c(-c2cc(F)cc(F)c2)nc2cncnc21`, the “activity change, negative = inhibition” value was inactive: 16%.

As for `O=c1oc2cc(O)ccc2cc1-c1ccc2c(c1)OCCO2`, the “activity change, negative = inhibition” value was inactive: -8.11%.

Consider `CCN[C@H]1CN(CCCOC)S(=O)(=O)c2sc(S(N)(=O)=O)cc21`, for which the “activity change, negative = inhibition” value is inactive: 10.3% [at 75.8 µM].

On to `NS(=O)(=O)c1cc(C2(O)NC(=O)c3ccccc32)ccc1Cl` (stereo unspecified), for which the activity change, negative = inhibition result was “inactive”.

For the molecule `CC(C)N(CCO)Cc1nc(N2CCOCC2)c2cc(Cl)ccc2n1`, the “activity change, negative = inhibition” value was inactive: 10.7%.

Regarding `COc1ccc(-c2nc3cnc(Nc4cccc(OC)c4)nc3n(C)c2=O)cc1`, the “activity change, negative = inhibition” value was inactive: 5.15%.

With `COS(C)(=O)=O`, the “activity change, negative = inhibition” value was inactive: 19.1%.

Take `Cc1cc(C)nc(S[C@H]2C[C@@H](C(=O)N3CCN(c4ccccc4F)CC3)N(Cc3ccccc3F)C2)n1`: the “activity change, negative = inhibition” value was inactive: -6.36%.
